# Experimental data: a collection of fitness landscapes (doi:10.1016/j.celrep.2020.107928)
# The full ranking holds about 81,000 sequences; the median of “one-hybrid fitness for binding parS DNA” is about -0.17, and the highest 2% start at about 0.51. The list shows a part of the results.
# B1: Caulobacter ParB omega fusion; a variant is named by its letters at X, in order, B8GW30 (parent)
# chain: MESVVVGEPGMSEGRRGLGRGLSALLGEVDAAPAQAPGEQLGGSREAPIEILQRNPDQPRRTFREEDLEDLSNSIREKGVLQPILVRPSPDTAGEYQIVAGERAWRAAQRAGLKTVPIMVRELDDLAVLEIGIIENVQRADLNVLEEALSYKVLMEKFERTQENIAQTIGKSXSHVANXMRLLXLPDEVQSYLVSGELTAXHARAIAAAADPVALAKQIIEGGLSVRETEALARKAPNLSAGKSKGGRPPRVKDTDTQALESDLSSVLGLDVSIDHRGSTGTLTITYATLEQLDDLCNRLTRGI
# Variants of: B1
# Assay: one-hybrid fitness for binding parS DNA (scaled: cognate 1, non-cognate 0); higher = stronger binding
# Conditions: with parS DNA site
# Summary of the method: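 On M9-minus-histidine containing 0.1 mM IPTG and 5 mM 3-AT, E. coli USO cells with a HIS3 reporter, site 19 bp from the promoter, grew 48 hours at 37°C to select Caulobacter ParB libraries randomised at four specificity codons. Plasmids from before and after were Illumina-sequenced, with three replicate libraries pooled and variants under 10 reads left out. Fitness is the log change in variant-to-wild-type read ratio, rescaled against cognate and non-cognate.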
row,Variant,one-hybrid fitness for binding parS DNA
1,QMYK,≤ 0.2
2,EIAA,≤ 0.2
3,CRNA,≤ 0.2
4,SKTH,≤ 0.2
5,TWMG,≤ 0.2
6,FMQR,≤ 0.2
7,WLYA,≤ 0.2
8,SDSG,≤ 0.2
9,RRDM,≤ 0.2
10,NRNK,≤ 0.2
11,QTVR,≤ 0.2
12,RYAA,0.559
13,NFSS,≤ 0.2
14,SWQL,≤ 0.2
15,WCAL,≤ 0.2
16,SMAP,≤ 0.2
17,GRAI,≤ 0.2
18,MFHT,≤ 0.2
19,HLQT,≤ 0.2
20,AKYR,≤ 0.2
21,YPMC,≤ 0.2
22,NDAS,≤ 0.2
23,RPKA,≤ 0.2
24,VMSS,≤ 0.2
25,KWRV,≤ 0.2

row,Variant,one-hybrid fitness for binding parS DNA
1,SKAG,≤ 0.2
2,LPDK,≤ 0.2
3,TPSF,≤ 0.2
4,IGYE,≤ 0.2
5,MWSS,≤ 0.2
6,CFAA,≤ 0.2
7,EHQD,0.289
8,HDQY,≤ 0.2
9,NTQT,≤ 0.2
10,AVSQ,≤ 0.2
11,PQSP,≤ 0.2
12,RCVD,0.203
13,EATV,≤ 0.2
14,LRGD,≤ 0.2
15,ETML,≤ 0.2
16,ASGR,≤ 0.2
17,NYEM,≤ 0.2
18,EPRR,≤ 0.2
19,NLSG,≤ 0.2
20,MHEV,≤ 0.2
21,GYST,≤ 0.2
22,AWES,≤ 0.2
23,PSYN,≤ 0.2
24,YIAQ,≤ 0.2
25,RTLS,1.01

row,Variant,one-hybrid fitness for binding parS DNA
1,QKPV,≤ 0.2
2,PNQI,≤ 0.2
3,WVPC,≤ 0.2
4,AWAR,≤ 0.2
5,CRQC,≤ 0.2
6,KDML,0.21
7,SHNS,≤ 0.2
8,QINH,≤ 0.2
9,FHQR,≤ 0.2
10,PPSV,≤ 0.2
11,RCHL,≤ 0.2
12,ASIR,≤ 0.2
13,PCDA,≤ 0.2
14,DKSV,≤ 0.2
15,RCHA,0.626
16,YFLC,≤ 0.2
17,HRAS,0.383
18,KGSF,≤ 0.2
19,FFNR,≤ 0.2
20,STAV,≤ 0.2
21,DTHM,≤ 0.2
22,PQLT,≤ 0.2
23,DTVG,≤ 0.2
24,RLGV,≤ 0.2
25,KIGE,≤ 0.2

row,Variant,one-hybrid fitness for binding parS DNA
1,VKYR,≤ 0.2
2,CHLR,≤ 0.2
3,TTIH,≤ 0.2
4,TANM,≤ 0.2
5,VTTP,≤ 0.2
6,YTTV,≤ 0.2
7,WCIT,≤ 0.2
8,DMCC,≤ 0.2
9,PAYE,≤ 0.2
10,AWAS,≤ 0.2
11,SGGE,≤ 0.2
12,NTCT,≤ 0.2
13,KPVI,≤ 0.2
14,STYV,≤ 0.2
15,QMDL,≤ 0.2
16,QEPR,≤ 0.2
17,QCGG,≤ 0.2
18,EAST,≤ 0.2
19,YMNR,≤ 0.2
20,NEIW,≤ 0.2
21,STGG,≤ 0.2
22,QDES,≤ 0.2
23,MFNT,≤ 0.2
24,GVTW,≤ 0.2
25,AEMV,≤ 0.2

row,Variant,one-hybrid fitness for binding parS DNA
1,YWLL,≤ 0.2
2,YLAA,≤ 0.2
3,ESEF,≤ 0.2
4,NRIM,≤ 0.2
5,TMKV,≤ 0.2
6,NLTR,≤ 0.2
7,TFES,≤ 0.2
8,AIAM,≤ 0.2
9,PWLV,≤ 0.2
10,DTED,≤ 0.2
11,ITFF,≤ 0.2
12,GDKY,≤ 0.2
13,RCYI,≤ 0.2
14,RFIH,≤ 0.2
15,MIVC,≤ 0.2
16,HGQR,≤ 0.2
17,QSGH,≤ 0.2
18,YVYR,≤ 0.2
19,YEVI,≤ 0.2
20,DNML,≤ 0.2
21,VHNT,≤ 0.2
22,RYVT,0.716
23,RCKC,0.816
24,GARS,≤ 0.2
25,WALY,≤ 0.2

row,Variant,one-hybrid fitness for binding parS DNA
1,MVTK,≤ 0.2
2,PCPH,≤ 0.2
3,MMAD,≤ 0.2
4,VLNN,≤ 0.2
5,RERF,≤ 0.2
6,VDVP,≤ 0.2
7,LEIW,≤ 0.2
8,GLPT,≤ 0.2
9,PRKE,≤ 0.2
10,RGAV,≤ 0.2
11,AIRA,≤ 0.2
12,MCLR,≤ 0.2
13,PSPQ,≤ 0.2
14,KETW,≤ 0.2
15,GYTG,≤ 0.2
16,RHHL,≤ 0.2
17,HTVT,≤ 0.2
18,NTLT,≤ 0.2
19,RRKS,0.684
20,CKKF,≤ 0.2
21,LWRD,≤ 0.2
22,NQHT,≤ 0.2
23,IGLE,0.203
24,RIWP,0.223
25,GNAV,≤ 0.2

row,Variant,one-hybrid fitness for binding parS DNA
1,HCWC,≤ 0.2
2,SQLE,≤ 0.2
3,RRDW,≤ 0.2
4,SPHV,≤ 0.2
5,GLSG,≤ 0.2
6,FKRV,≤ 0.2
7,KMKG,≤ 0.2
8,ARSH,≤ 0.2
9,QRVS,≤ 0.2
10,DGLT,≤ 0.2
11,CACV,≤ 0.2
12,PMEA,≤ 0.2
13,QKVS,≤ 0.2
14,TESC,≤ 0.2
15,NKYS,≤ 0.2
16,RTSQ,≤ 0.2
17,SLTC,≤ 0.2
18,VKKY,≤ 0.2
19,HNKA,≤ 0.2
20,LLHT,≤ 0.2
21,RRET,0.674
22,AQRM,≤ 0.2
23,THPF,≤ 0.2
24,DQSK,≤ 0.2
25,GKWN,≤ 0.2

row,Variant,one-hybrid fitness for binding parS DNA
1,HVYY,≤ 0.2
2,DQKI,≤ 0.2
3,IRAG,≤ 0.2
4,APEV,≤ 0.2
5,WTSY,≤ 0.2
6,FMNL,≤ 0.2
7,SRRA,≤ 0.2
8,AIHT,≤ 0.2
9,EAHM,≤ 0.2
10,RWDV,≤ 0.2
11,KKTQ,≤ 0.2
12,GSRT,≤ 0.2
13,SRYY,≤ 0.2
14,HTMW,≤ 0.2
15,LYNT,≤ 0.2
16,SCVS,≤ 0.2
17,IDMR,≤ 0.2
18,QIFI,≤ 0.2
19,DHNT,0.279
20,LFHR,≤ 0.2
